# Measured values published in the supplement of paper PMC4967469.
# pIC50: −log10 of the molar value. The IC50 comes from the fitted curve, where viability falls to half of the control; a limit (>, <) means that the fit lies beyond the doses tested. For AUC the same curve is integrated over the 256-fold range of doses and scaled to a fraction; the more sensitive the line, the further below 1. Any top dose called inferred was calculated from the reported fits.
# How the values were obtained:
# Assay in all cases: Viability of human cancer cell lines after 72 h of drug (GDSC screen)
# NG-25 = compound: CCN1CCN(Cc2ccc(NC(=O)c3ccc(C)c(Oc4ccnc5[nH]ccc45)c3)cc2C(F)(F)F)CC1 [NG-25]; conditions: top dose 10.24 µM; top dose inferred
# Experimental: (§1)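 Human cancer cell lines in 384-well plates, medium with 10% serum, drug for 72 h over a 256-fold dose range (nine 2-fold or five 4-fold steps up to the top dose). Adherent lines were fixed and stained with the nucleic acid dye Syto60, suspension lines read with resazurin; signal relative to control wells, capped at 0 and 100%. One two-parameter sigmoid per drug and line, fitted in a mixed model over all curves with the slope shared within a line.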
# GSK-1904529A = compound: CCc1cc(Nc2nccc(-c3c(-c4ccc(OC)c(C(=O)Nc5c(F)cccc5F)c4)nc4ccccn34)n2)c(OC)cc1N1CCC(N2CCN(S(C)(=O)=O)CC2)CC1 [GSK-1904529A]; conditions: top dose 1.024 µM; top dose inferred
# Experimental: as §1
# PFI-1 = compound: COc1ccccc1S(=O)(=O)Nc1ccc2c(c1)CN(C)C(=O)N2 [PFI-1]; conditions: top dose 10 µM; top dose inferred
# Experimental: as §1
# Tipifarnib = compound: Cn1cncc1[C@@](N)(c1ccc(Cl)cc1)c1ccc2c(c1)c(-c1cccc(Cl)c1)cc(=O)n2C [Tipifarnib]; conditions: top dose 16 µM; top dose inferred
# Experimental: as §1
Cell Line,AUC (NG-25),pIC50 (NG-25),AUC (GSK-1904529A),pIC50 (GSK-1904529A),AUC (PFI-1),pIC50 (PFI-1),AUC (Tipifarnib),pIC50 (Tipifarnib)
"KYSE-410 (oesophagus, adherent)",0.954,< 4.99,0.982,< 5.99,0.783,5.34,0.558,5.84
"KYSE-450 (oesophagus, adherent)",0.896,< 4.99,0.969,< 5.99,0.933,< 5.00,0.436,6.17
"KYSE-510 (oesophagus, adherent)",0.974,< 4.99,0.951,< 5.99,0.947,< 5.00,0.523,5.94
"KYSE-520 (oesophagus, adherent)",0.909,< 4.99,0.978,< 5.99,0.891,< 5.00,0.879,< 4.80
"LC-1-sq (lung squamous cell carcinoma, adherent)",0.959,< 4.99,0.983,< 5.99,0.881,< 5.00,0.778,5.12
"LCLC-97TM1 (large cell lung carcinoma, adherent)",0.831,5.13,0.976,< 5.99,0.864,< 5.00,0.605,5.70
"LCLC-103H (large cell lung carcinoma, adherent)",0.909,< 4.99,0.987,< 5.99,0.987,< 5.00,0.237,6.72
"LK-2 (lung squamous cell carcinoma, adherent)",0.923,< 4.99,0.986,< 5.99,0.91,< 5.00,0.493,6.02
"LN-18 (glioma, adherent)",0.955,< 4.99,0.988,< 5.99,0.935,< 5.00,0.834,5.11
"LN-229 (glioma, adherent)",0.986,< 4.99,0.985,< 5.99,0.896,< 5.00,0.861,4.87
"LN-405 (glioma, adherent)",0.977,< 4.99,0.979,< 5.99,0.932,< 5.00,0.913,< 4.80
"LNZTA3WT4 (glioma, adherent)",0.942,< 4.99,0.983,< 5.99,0.915,< 5.00,0.822,5.04
"LOU-NH91 (lung squamous cell carcinoma, adherent)",0.969,< 4.99,0.984,< 5.99,0.894,< 5.00,0.771,5.18
"LS-180 (large intestine, adherent)",0.943,< 4.99,0.98,< 5.99,0.884,< 5.00,0.39,6.32
"LU-99A (large cell lung carcinoma, adherent)",0.875,5.00,0.984,< 5.99,0.919,< 5.00,0.674,5.52
"LU-135 (small cell lung carcinoma, suspension)",0.828,5.31,0.98,< 5.99,0.967,< 5.00,0.697,5.50
"LoVo (large intestine, adherent)",0.918,< 4.99,0.984,< 5.99,0.883,< 5.00,0.313,6.53
"M14 (melanoma, adherent)",0.75,5.46,0.814,6.22,0.876,< 5.00,0.837,4.94
"M059J (glioma, adherent)",0.779,5.34,0.981,< 5.99,0.837,5.12,0.897,< 4.80
"MC-IXC (neuroblastoma, adherent)",0.885,5.21,0.994,< 5.99,0.996,< 5.00,0.688,5.54
"MCF7 (breast, adherent)",0.979,< 4.99,0.978,< 5.99,0.824,5.20,0.258,6.71
"MDA-MB-157 (breast, adherent)",0.968,< 4.99,0.979,< 5.99,0.894,< 5.00,0.799,5.10
"MDA-MB-175-VII (breast, adherent)",0.986,< 4.99,0.985,< 5.99,0.986,< 5.00,0.919,< 4.80
"MDA-MB-231 (breast, adherent)",0.971,< 4.99,0.944,< 5.99,0.815,5.23,0.759,5.23
"MDA-MB-330 (breast, adherent)",0.948,< 4.99,0.968,< 5.99,0.952,< 5.00,0.591,5.74
"MDA-MB-361 (breast, adherent)",0.958,< 4.99,0.981,< 5.99,0.863,5.07,0.609,5.70
"MDA-MB-415 (breast, adherent)",0.98,< 4.99,0.962,< 5.99,0.918,< 5.00,0.702,5.34
"MDA-MB-436 (breast, adherent)",0.926,< 4.99,0.867,< 5.99,0.911,< 5.00,0.721,5.30
"MDA-MB-453 (breast, adherent)",0.872,< 4.99,0.963,< 5.99,0.842,5.09,0.924,< 4.80
"MDA-MB-468 (breast, adherent)",0.944,< 4.99,0.943,< 5.99,0.927,< 5.00,0.804,5.12
